The supplement of paper PMC10441789
The list shows a part of the results. Antibody binding of pooled human sera (four to six donors per pool; dilution not stated) to peptides of the Trypanosoma cruzi antigen TSSA on microarrays. Quantile-normalised fluorescence in arbitrary units, mean of duplicate arrays; higher = more binding. No active / inactive call. The uninfected pools are read here as the healthy donors of the same country. The strongest signals lie near the top of the scale (about 60,000).

Tests used:
Test in all cases: antibody binding signal (normalised fluorescence) (arbitrary fluorescence units); higher = stronger serum antibody binding to peptide
[1] = system: pooled sera of chronic Chagas disease patients, Argentina
Protocol: (§1)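 Microarray of 15-residue peptides over residues 30-55 of Trypanosoma cruzi TSSAII, each with 1 to 10 substitutions at naturally variable positions, probed with one serum pool per country.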

[2] = system: pooled sera of chronic Chagas disease patients, Bolivia
Protocol: as §1

[3] = system: pooled sera of chronic Chagas disease patients, Brazil
Protocol: as §1

[4] = system: pooled sera of chronic Chagas disease patients, Colombia
Protocol: as §1

[5] = system: pooled sera of chronic Chagas disease patients, Mexico
Protocol: as §1

[6] = system: pooled sera of chronic Chagas disease patients, USA
Protocol: as §1

[7] = system: pooled sera of uninfected people, Argentina
Protocol: as §1

[8] = system: pooled sera of uninfected people, Bolivia
Protocol: as §1

[9] = system: pooled sera of uninfected people, Brazil
Protocol: as §1

[10] = system: pooled sera of uninfected people, Mexico
Protocol: as §1

[11] = system: pooled sera of uninfected people, USA
Protocol: as §1

Sequence	antibody binding signal [1]	antibody binding signal [2]	antibody binding signal [3]	antibody binding signal [4]	antibody binding signal [5]	antibody binding signal [6]	antibody binding signal [7]	antibody binding signal [8]	antibody binding signal [9]	antibody binding signal [10]	antibody binding signal [11]
GTEKKTATGGTPSQS	775	470	581	2660	934	1820	370	336	272	256	138
TDKKPATGETPSQSG	30000	25100	32400	282	222	21900	224	407	256	1740	172
ENKAATGGAPSPSGA	702	1580	3170	745	472	2350	320	149	272	181	145
SGKENKAATGGTPSP	3870	2270	17100	6320	2120	18800	8230	2080	177	367	230
TPPSGKDKKTAAGET	4370	848	1390	532	38800	1220	231	478	128	138	140
GTDNKPATGETPSPP	37100	31900	40400	1350	305	26400	257	752	349	1740	594
DNKTAAGEAPSQSGA	422	16600	11600	401	317	5980	117	240	268	186	126
KAAAGETPSQPGASS	2010	3370	34200	199	170	1400	156	1270	135	248	177
KDNKAAAGEAPSPPG	606	243	17700	316	225	10500	364	1940	146	104	116
TEKKAATGGAPSPSG	2180	357	1080	2940	2200	3330	470	1180	155	241	238
TSSTPPSGTENKTAT	47800	51200	51700	332	3150	30500	3820	610	417	576	582
KDKKAAAGEAPSPSG	161	268	281	215	207	6170	126	104	78.7	91.4	98.9
ENKAATGGTPSPSGA	512	2640	497	616	348	279	227	168	581	137	156
DNKTATGGTPSQPGA	475	1140	943	2070	411	628	603	180	545	1930	189
GKDNKAATGGTPSPP	2050	715	1780	5720	5910	4480	190	221	160	80.5	94.3
GTEKKPATGGTPSQP	2320	454	2060	3710	2470	1620	351	1150	1460	534	1420
DNKTATGETPSPPGA	372	1130	2660	437	169	6710	130	199	226	143	416
SGKENKPATGETPSP	35600	30800	35200	1300	1850	23100	7440	3940	269	1810	616
SGKEKKTATGETPSP	2290	510	2790	1220	1900	8770	525	229	102	184	558
KKAATGGAPSPPGAS	519	226	298	634	523	711	343	252	126	73.6	276
KEKKPATGGTPSQPG	327	276	449	515	182	296	216	104	323	103	614
DKKTATGETPSQPGA	991	1810	31900	263	310	6910	217	773	301	532	215
KEKKAAAGGAPSQPG	156	213	237	1860	193	288	104	83.4	131	85.1	108
STPPSGTENKTATGE	44200	45800	46000	202	2550	34200	3600	361	303	386	235
TDNKAATGGTPSQSG	417	938	488	448	523	166	281	324	400	400	123
NKAAAGEAPSQSGAS	636	21200	29100	203	234	10800	373	1020	305	388	800
SGKDKKAATGEAPSP	18500	16800	18300	549	697	19000	307	97.9	94.8	86.4	126

Sequence	antibody binding signal [1]	antibody binding signal [2]	antibody binding signal [3]	antibody binding signal [4]	antibody binding signal [5]	antibody binding signal [6]	antibody binding signal [7]	antibody binding signal [8]	antibody binding signal [9]	antibody binding signal [10]	antibody binding signal [11]
GTEKKTAAGGAPSQP	357	666	391	6830	621	950	173	426	151	118	134
GKENKPATGGTPSPS	2920	668	8980	5780	5960	12600	762	441	181	184	172
SGTENKPAAGETPSQ	44000	17600	36500	526	1000	10200	665	1320	229	204	123
SGTDNKPATGGAPSP	9030	20300	46000	4070	647	3380	288	1410	330	469	315
KEKKTAAGGTPSQPG	221	203	229	3180	157	1500	238	88.7	226	178	113
GKEKKPATGGTPSPS	2400	485	541	1920	2660	3070	163	116	309	91.1	258
DNKTATGETPSPSGA	526	1000	1700	374	189	6850	168	230	202	175	757
KKPAAGGTPSQSGAS	179	243	374	1540	170	459	292	113	667	109	267
EKKAATGGAPSPPGA	2140	258	545	2710	1310	1350	432	1360	125	172	688
SGTEKKPAAGETPSQ	2700	1200	8260	1270	1290	2380	79.2	934	718	261	444
STPPSGKDNKPATGE	33100	35000	37000	322	19500	23400	544	1010	393	234	141
GKEKKTAAGEAPSQS	6600	1770	992	4140	4180	5390	146	110	92.4	84.8	75.7
EKKAAAGGTPSPSGA	1260	185	255	6390	551	1880	204	843	1820	128	805
GTENKTATGETPSQP	28800	8180	29400	986	1020	7420	126	332	361	258	148
NKTAAGETPSQPGAS	1090	7500	33800	480	418	1450	534	1760	530	304	1320
TEKKTATGGAPSQSG	2620	510	1360	3500	816	1640	392	459	128	699	263
SSTPPSGTEKKTAAG	36800	5580	27600	369	7510	4400	891	321	128	121	177
KDNKPATGGAPSQPG	549	1430	21000	295	325	1670	400	853	152	168	171
TPPSGTDNKPATGGA	49000	40800	48700	7690	30000	23000	1850	1290	921	995	524
SGTEKKTATGETPSQ	741	1180	4600	403	310	6890	235	418	322	141	151
GTENKAATGGAPSQP	38900	2410	25100	2460	3220	4380	274	396	200	186	124
KKPATGETPSQSGAS	9510	4200	25700	149	223	18300	416	485	115	544	509
TPPSGTDKKPAAGET	29300	36400	44700	5780	46800	4100	760	440	501	4840	407
SGTDNKAATGGAPSQ	1390	958	40900	957	636	1920	280	689	1520	196	200
PPSGTDNKTATGGAP	23100	32200	45200	635	1560	4170	1280	1070	1700	327	805
TSSTPPSGKDNKTAA	16200	6370	5200	2360	18200	3430	1290	364	148	113	304
